Target: CLASPIN (H. sapiens, UniProt Q9HAW4)
Assay: cryo-EM structure

binding result: binds
B1: MCM2 (natural protein)
chain: not shown
